# Measured values as given in PubChem BioAssay AID624417 (National Center for Advancing Translational Sciences (NCATS), 2012).
# The campaign covered roughly 410,000 compounds. About 6,400 (1.6%) were called active. Inconclusive results, whose numbers are uncertain, are shown with a selection of clear calls. Calls follow the shape of the dose curve; as a rule, active = well fitted inhibition curve with a large enough effect; inconclusive = small, poorly fitted or top-dose-only effect; inactive = no such curve, though single readings can be large or run the other way. Potencies of inconclusive entries are doubtful fits and often do not repeat.
# Biological target: Glucagon-like peptide 1 receptor (Homo sapiens) (UniProt P43220)
# Sequence of UniProt P43220 (P43220 whole entry, looked up): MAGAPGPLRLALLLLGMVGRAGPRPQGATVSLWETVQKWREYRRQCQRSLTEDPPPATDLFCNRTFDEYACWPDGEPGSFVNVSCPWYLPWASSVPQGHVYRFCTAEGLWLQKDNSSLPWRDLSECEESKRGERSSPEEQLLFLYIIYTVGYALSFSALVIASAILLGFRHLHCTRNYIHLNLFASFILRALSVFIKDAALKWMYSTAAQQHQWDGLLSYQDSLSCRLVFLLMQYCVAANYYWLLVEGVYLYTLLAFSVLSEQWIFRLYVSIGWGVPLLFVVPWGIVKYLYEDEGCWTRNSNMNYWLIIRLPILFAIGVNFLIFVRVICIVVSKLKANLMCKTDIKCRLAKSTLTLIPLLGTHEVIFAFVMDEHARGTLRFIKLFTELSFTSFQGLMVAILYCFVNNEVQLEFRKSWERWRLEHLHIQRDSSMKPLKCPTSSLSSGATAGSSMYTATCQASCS
# Assay: qHTS of GLP-1 Receptor Inverse Agonists (Inhibition Mode); also: nearly all actives have a fitted effect of over 55% in size
# Settings: HEK293 GLP-1R CRE-luciferase, luminescence, 24 h, GLP-1R form is constitutively active; activity change, negative = inhibition: at 38.3 µM (top of the series) unless noted
# In short: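 Readout was luciferase luminescence, measured 12 min after detection reagent at room temperature. Beforehand, GLP-1R reporter HEK293 cells had sat 12 h, then received compounds for 24 hr at 37 deg C.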
# % is scaled to controls: 0 for no effect and ±100 for the full control effect; potency is read from the fitted curve at half-maximal effect; tags tell the direction and shape of the fitted curve.
SMILES,Potency,"activity change, negative = inhibition"
COc1cccc(-c2ccc(NC(=O)C3CCCN(Cc4cnc(N(C)C)s4)C3)cc2)c1 (centres undefined),"inconclusive: 28.2 µM [inhibitor, single point]",
CCOc1ccccc1N1CCN(C(=O)c2ccc(-c3ccc(OC(C)=O)cc3)cc2)CC1,"inconclusive: 12.6 µM [inhibitor, partial curve, poor fit]",
Cc1cccc(NS(=O)(=O)c2cccs2)n1,,inactive: 5.07%
COc1ccc(CN2CCN(c3nc4ccccc4s3)CC2)cc1,,inactive: 4.85%
CSc1ccc(CN2CCC2(C)C(=O)NC2CCc3ccccc32)cc1 (centres undefined),"inconclusive: 11.2 µM [inhibitor, partial curve]",
Fc1ccc(CNC2CCN(Cc3ccccc3)CC2)cc1,"inconclusive: 8.91 µM [inhibitor, partial curve]",
CCOC(=O)C1(C)/C(=N/Nc2ccccc2)C(=O)C(=O)N1c1ccccc1 (centres undefined),"inconclusive: 28.2 µM [inhibitor, single point]",
N#C/C(=C\Nc1ccc2c(c1)OCCO2)C(=O)NCc1ccco1,,inactive: -8.74%
O=C(NCCCN1CCCC1)c1ccc2c(c1)N(Cc1cccc(Cl)c1)C(=O)c1ccccc1S2(=O)=O,"inconclusive: 10 µM [inhibitor, partial curve, poor fit]",
O=C(c1ccccc1Cl)n1nc(-c2cccnc2)nc1NCc1ccc(F)cc1,,inactive: -2.76%
CCOC(=O)N1CCN(c2c(NCc3cccs3)c(=O)c2=O)CC1,"inconclusive: 3.55 µM [inhibitor, partial curve]",
CCCCc1n[nH]c(=S)n1Cc1ccc(Cl)cc1,"inconclusive: 7.08 µM [inhibitor, partial curve]",
CCOc1ccc(Cl)cc1-c1cc(C(=O)Nc2cc(OC)c(OC)c(OC)c2)[nH]n1,"inconclusive: 28.2 µM [inhibitor, partial curve, poor fit]",
COC(=O)c1ccc(/C=C/c2ccc3cccc(OC(C)=O)c3n2)cc1,,inactive: -29.5%
CCCCOc1ccc(C(=O)N(Cc2ccc(C(C)C)cc2)C2CCS(=O)(=O)C2)cc1 (centres undefined),"inconclusive: 28.2 µM [inhibitor, single point]",
COCC1CCN(C(=O)c2ccc3oc(CCc4ccccc4)nc3c2)C1 (centres undefined),"inconclusive: 28.2 µM [inhibitor, single point]",
COc1cccc(N(C(=O)Cn2nnc(-c3ccc(C)cc3)n2)C(C(=O)NC(C)(C)C)c2c[nH]c3ccccc23)c1 (centres undefined),"inconclusive: 10 µM [inhibitor, partial curve]",
CCOc1ccc(NC(=S)N(CCc2c(C)[nH]c3ccc(C)cc23)Cc2ccco2)cc1,active: 7.94 µM,
COc1ccccc1OCCCOc1c(C)cc(C)cc1Br,"inconclusive: 28.2 µM [inhibitor, single point]",
CC1=C(C(=O)N2CCCC(N3CCN(c4ccccc4C)CC3)C2)OCCO1 (centres undefined),"inconclusive: 10 µM [inhibitor, partial curve, poor fit]",
Cc1cccc2c(=O)c(C(=O)NCc3cccs3)c[nH]c12,,inactive: 12.1%
CCO[C@@H]1OC(C(=O)N2CCOCC2)=C[C@H](c2ccccc2)[C@H]1CCCO,,inactive: 10.2%

SMILES,Potency,"activity change, negative = inhibition"
COc1ccc(OCC(=O)NCC(c2ccc(Cl)cc2)N2CCCCC2)cc1 (centres undefined),"inconclusive: 28.2 µM [inhibitor, single point]",
COc1ccccc1/C=N/NC(=O)c1cc2c(OC)c(OC)ccc2[nH]1,"inconclusive: 15.8 µM [inhibitor, partial curve, poor fit]",
Cc1cc(NC(=O)c2sc(Nc3ccc(F)cc3)nc2N)no1,"inconclusive: 12.6 µM [inhibitor, single point]",
COCCCNC(=O)c1sc2nc(C)c(C(=O)Nc3ccc(C)cc3C)c(-c3ccc(Cl)cc3)c2c1N,"inconclusive: 11.2 µM [inhibitor, partial curve, poor fit]",
Clc1ccc2c(N/N=C/c3cccnc3)ccnc2c1,"inconclusive: 28.2 µM [inhibitor, single point]",
COc1cccc(CNC(=O)c2ccc(C)c(S(=O)(=O)N3CCCCC3)c2)c1,"inconclusive: 28.2 µM [inhibitor, single point]",
CC1CCN(C(=O)c2cnn(-c3cccc(Cl)c3)c2C2CCN(C(=O)OC(C)(C)C)CC2)CC1,,inactive: 1.29%
Cc1cc(Cl)ccc1OCc1nc(-c2ccncc2)no1,"inconclusive: 28.2 µM [inhibitor, single point]",
Cc1ccc(-n2nnnc2SCC(=O)NCC2(N3CCOCC3)CCCCC2)cc1,"inconclusive: 10 µM [inhibitor, partial curve]",
CCOC(=O)CNS(=O)(=O)c1cc(-c2nnc(Nc3ccc4c(c3)OCO4)c3ccccc23)ccc1C,"inconclusive: 28.2 µM [inhibitor, single point]",
Clc1ccc(-c2cn3nc4c(nc3n2)CCCC4)cc1,active: 6.31 µM,
CCOC(=O)Cn1c(=O)n(C2CCCCC2)c2nc(-c3ccc(Cl)cc3)nc(C(N)=O)c21,,inactive: 1.74%
COc1cc(C(=O)N2CCN(c3ccccc3)CC2)c2ccccc2n1,"inconclusive: 2.51 µM [inhibitor, full curve, poor fit]",
CSc1ccc(C(=O)C2CCCN(C(=O)c3ccc4c(c3)no[n+]4[O-])C2)cc1 (centres undefined),,inactive: 19.9%
COc1cc2c(cc1OC)CN(Cc1ccc(OC)c(C)c1OC)CC2,,inactive: 0%
CCC(C(=O)NC1CC1)n1nc(C)c2c(C)n(-c3ccc(C)cc3)nc2c1=O (centres undefined),,inactive: 3.36%
Cc1ccc([N+](=O)[O-])cc1N=C(c1ccc([N+](=O)[O-])cc1)N1CCOCC1,"inconclusive: 2.82 µM [inhibitor, partial curve]",
CN1CCN(c2ccc(Cl)cc2NC(=O)c2cc(=O)[nH]c3ccccc23)CC1,"inconclusive: 31.6 µM [inhibitor, partial curve, poor fit]",
O=[N+]([O-])c1ccccc1S(=O)(=O)NCCSc1ccccc1,"inconclusive: 28.2 µM [inhibitor, single point]",
CCOc1ccc(NC(=O)C2CCCN(S(=O)(=O)c3cccc4nsnc34)C2)cc1 (centres undefined),"inconclusive: 0.794 µM [inhibitor, full curve, poor fit]",
CC(C)CNc1nnnc2c1sc1nc(N3CCOCC3)c3c(c12)CC(C)(C)SC3,"inconclusive: 2.24 µM [inhibitor, full curve, poor fit]",
CCOc1ccc(CNC2CCCc3ccccc32)cc1 (centres undefined),"inconclusive: 12.6 µM [inhibitor, single point]",

SMILES,Potency,"activity change, negative = inhibition"
C=CCN(CC=C)C(=O)CN1C(=O)NC(c2ccccc2)(c2ccccc2)C1=O,"inconclusive: 10 µM [inhibitor, single point]",
Cc1ccc(N2CCN(CC(O)COc3cccc(C)c3)CC2)cc1 (centres undefined),"inconclusive: 11.2 µM [inhibitor, partial curve, poor fit]",
COc1cccc(-n2cc(C(=O)NCc3cccc(Cl)c3)c3ccccc3c2=O)c1,"inconclusive: 17.8 µM [inhibitor, single point]",
CCOc1ccc(/C=N/NC(=O)c2cc3c(OC)cccc3[nH]2)cc1,"inconclusive: 28.2 µM [inhibitor, single point]",
CCOC(=O)[C@@H]1[C@H]2COc3cc(OC)ccc3[C@H]2N2C(=O)N(c3ccc(C(F)(F)F)cc3)C(=O)[C@@]12C,"inconclusive: 11.2 µM [inhibitor, partial curve, poor fit]",
COc1ccc(S(=O)(=O)Nc2cc3c(cc2NCc2ccccc2)n(C)c(=O)n3C)cc1OC,,inactive: 0.814%
COc1cccc(NC(=O)CN(C)C(=O)c2cc(-c3cccc(Br)c3)nc3ccccc23)c1,"inconclusive: 10 µM [inhibitor, partial curve, poor fit]",
O=C(NC(C(=O)c1ccccc1)N1CCCCC1)c1ccccc1 (centres undefined),"inconclusive: 28.2 µM [inhibitor, single point]",
CC(=O)Nc1cccc(NC(=O)c2cc(-c3cccnc3)nc3ccc(Cl)cc23)c1,,inconclusive: -36.6% [inhibitor] [at 7.66 µM]
CCOC(=O)C(=Cc1ccc(-n2cncn2)cc1)C(=O)OCC,"inconclusive: 10 µM [inhibitor, single point]",
Cc1cccc(SC2CCN(C(=O)C3CCC(=O)N(C4CC4)C3)CC2)c1 (centres undefined),"inconclusive: 7.94 µM [inhibitor, partial curve, poor fit]",
CCN(CC)CCCN(Cc1cc2cc3c(cc2[nH]c1=O)OCO3)C(=S)Nc1ccccc1,"inconclusive: 11.2 µM [inhibitor, partial curve, poor fit]",
CCCCc1ccc(NC(=O)NCc2cccnc2)cc1,"inconclusive: 7.94 µM [inhibitor, partial curve, poor fit]",
O=C(N/C(=C\c1ccc(Cl)cc1)C(=O)N1CCCCC1)c1ccco1,active: 10 µM,
COc1cc(/C=N/NC(=O)c2nnn(-c3nonc3N)c2C(C)C)ccc1OCc1ccccc1,"inconclusive: 2 µM [inhibitor, full curve, poor fit]",
COc1ccc2nc(NC(=O)C3CSC4(C)CCC(=O)N34)sc2c1 (centres undefined),,inactive: -26.7%
CC(C)NCC(O)COC1CCC(C(C)(C)C)CC1 (centres undefined),active: 7.08 µM,
CCCCN(C)CCNC(=O)c1cc2c(-c3cccc(OC)c3)nn(C)c2s1,"inconclusive: 8.91 µM [inhibitor, partial curve, poor fit]",
O=C(NC(=S)NCc1ccccc1)c1ccccc1Br,"inconclusive: 17.8 µM [inhibitor, single point]",
O=C(c1cccnc1Cl)N(Cc1ccccc1)Cc1ccccc1,"inconclusive: 11.2 µM [inhibitor, partial curve]",
